Reference: PubChem BioAssay AID1259400 (National Center for Advancing Translational Sciences (NCATS), 2018)
The whole screen tested about 350,000 compounds, of which about 2,100 (0.6%) were called active. The shares of active, inactive and inconclusive entries below differ from those in the screen.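 The calls were made as follows: active = activity change of -60% or lower, but not beyond a set lower limit; inconclusive = change between -60% and -40%, or beyond the set limit; inactive = change above -40%.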 The source holds several records for some structures; these can differ, active in one and inactive in another.

The compounds below were run against Relaxin receptor 1 (Homo sapiens) (UniProt Q9HBX9) (assay: qHTS Assay for Antagonists of the Relaxin Receptor RXFP1). Conditions: HEK293-RXFP1, relaxin-stimulated cAMP HTRF, 30 min; at 57.5 µM; stronger effect = lower value.
Chain of UniProt Q9HBX9 (Q9HBX9 whole entry, looked up): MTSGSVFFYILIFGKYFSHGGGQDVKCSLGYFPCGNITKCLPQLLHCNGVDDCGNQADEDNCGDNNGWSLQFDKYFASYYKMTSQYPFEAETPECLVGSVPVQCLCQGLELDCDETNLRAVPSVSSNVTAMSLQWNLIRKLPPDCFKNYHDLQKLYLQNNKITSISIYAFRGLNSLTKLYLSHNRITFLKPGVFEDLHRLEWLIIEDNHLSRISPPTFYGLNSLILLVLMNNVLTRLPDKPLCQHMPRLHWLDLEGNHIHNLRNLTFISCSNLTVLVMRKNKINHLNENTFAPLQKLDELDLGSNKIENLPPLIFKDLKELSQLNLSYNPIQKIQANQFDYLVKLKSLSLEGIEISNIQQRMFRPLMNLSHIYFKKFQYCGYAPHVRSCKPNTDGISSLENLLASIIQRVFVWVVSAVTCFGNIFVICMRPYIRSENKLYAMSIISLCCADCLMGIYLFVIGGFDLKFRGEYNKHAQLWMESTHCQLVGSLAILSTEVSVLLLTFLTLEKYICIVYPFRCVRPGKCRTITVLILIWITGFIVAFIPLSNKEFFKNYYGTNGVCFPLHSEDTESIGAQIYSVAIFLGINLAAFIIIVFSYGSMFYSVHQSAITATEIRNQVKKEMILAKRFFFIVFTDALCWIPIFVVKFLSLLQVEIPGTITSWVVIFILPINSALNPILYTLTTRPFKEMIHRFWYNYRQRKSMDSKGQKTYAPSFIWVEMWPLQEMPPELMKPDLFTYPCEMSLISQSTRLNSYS
% is scaled to controls: 0 for no effect and ±100 for the full control effect.

Row | Structure (SMILES) | activity change, negative = inhibition
1 | C/C(=N\NC(=O)CCc1ccccc1)C1C(=O)c2ccccc2C1=O | inconclusive: -47.7%
2 | CCCC(=O)NC(c1cccs1)c1cc([N+](=O)[O-])c2cccnc2c1O (stereo not drawn) | active: -66%
3 | CCCCOc1ccc(C(=O)N(C)CC(=O)Nc2ccc(C)cc2)cc1 | inactive: -3.67%
4 | CC(C)(C)c1ccc(C2NC(=O)c3n[nH]c(-c4cccs4)c32)cc1 (stereo not drawn) | inactive: -17.1%
5 | CCCN(Cc1nc(-c2ccc(Cl)cc2)no1)CC1CCCO1 (stereo not drawn) | inconclusive: -46.7%
6 | CNC(=O)CSc1nnc(-c2ccco2)n1-c1cc(C)ccc1C | inactive: -2.54%
7 | CCOc1ccccc1CNC(=O)CCc1cn(Cc2ccc(Cl)cc2)c2ccccc12 | inactive: -3.71%
8 | CCOc1ccc(C(=O)NCC(=O)OCC(=O)NC2CCCC2)cc1 | inconclusive: -45.3%
9 | O=C(NCCc1csc(-c2cccc(F)c2)n1)c1ccc(Br)o1 | active: -78.2%
10 | NC(=O)c1nsc(C(=O)N(c2ccccc2)C(C(=O)NCC2CCCO2)c2ccc(F)cc2)c1N (stereo not drawn) | inconclusive: -56%
11 | COc1ccc(-c2cc(C(F)(F)F)nc(SCCC(=O)Nc3cc(C)on3)n2)cc1 | inactive: 8.64%
12 | CCOc1cccc(CNc2ccc(O)cc2)c1OCc1ccccc1Cl | active: -88.9%
13 | CCC1=NN(C(=O)c2ccccc2Br)C(O)(c2ccc(Br)cc2)C1 (stereo not drawn) | inconclusive: -41%
14 | O=C(c1cc2c(s1)-c1ccccc1OC2)N1CCCC1 | inconclusive: -42.2%
15 | Cc1ccc(NC(=S)NC(=O)/C=C/c2ccco2)c(O)c1 | active: -62.7%
16 | O=c1cc(N2CCCCC2)c(-c2ccccc2)nn1Cc1c(Cl)cccc1Cl | inconclusive: -49.8%
17 | CCCCn1c(=N)n(CCOc2ccc(C)cc2)c2ccccc21 | active: -75.2%
18 | O=C(O)CCCC(=O)NNC(=O)c1cccc(Br)c1 | inactive: 4.05%
19 | CC(C)c1c(C(=O)N/N=C/c2ccc(Cl)cc2Cl)nnn1-c1nonc1N | inconclusive: -40%
20 | O=C(N/N=C/c1ccccn1)c1[nH]c2ccc([N+](=O)[O-])cc2c1-c1ccccc1 | inconclusive: -53.7%
21 | Cc1cnc(NC(=O)c2ccccn2)s1 | inconclusive: -43.5%
22 | O=C1NC(=Nc2ccc(O)cc2)S/C1=C/c1ccco1 | active: -61.3%

Row | Structure (SMILES) | activity change, negative = inhibition
23 | CCCCN(CC)S(=O)(=O)c1ccc(C(=O)N(CCCN(C)C)c2nc3cc(C)cc(C)c3s2)cc1 | inconclusive: -56.4%
24 | OCCC1CN(Cc2cccc3nccnc23)CCN1Cc1ccc(F)c(F)c1 (stereo not drawn) | inconclusive: -42.5%
25 | CCOC(=O)C1=C[C@]2(CC)CCCN3CCc4c(n1c1ccccc41)[C@@H]32 | inconclusive: -48.1%
26 | COc1ccc(NC(=O)CN(C)CC(=O)NCC2CCCCC2)cc1 | inactive: 8.42%
27 | Cc1[nH]n(-c2ncc(-c3ccccc3)s2)c(=O)c1C(c1ccc(Br)cc1)C(C#N)C#N (stereo not drawn) | inconclusive: -57%
28 | C#CCOc1ccc(OC)cc1C(c1c(C)[nH][nH]c1=O)c1c(C)[nH][nH]c1=O | inconclusive: -58%
29 | N#Cc1c(NC(=S)NC(=O)Cc2cccs2)sc2c1CCCCC2 | inactive: 1.97%
30 | COC(=O)c1ccc2c(=O)n(CCCCCC(=O)N3CCN(c4ccc(Cl)cc4)CC3)c(=O)[nH]c2c1 | inconclusive: -41.4%
31 | O=c1oc(-c2ccc(Br)cc2)nc2ccccc12 | inconclusive: -51.1%
32 | COc1cccc(CNCCSc2nnnn2-c2ccccc2)c1OC | inactive: -0.936%
33 | Cc1cccc(-n2c(-c3csc(C(C)C)c3)n[nH]c2=S)c1 | active: -71%
34 | Cc1cc(C(=O)NCCCn2ccnc2)sc1-c1ccccc1 | inactive: 23.6%
35 | CC(NCc1ccccc1OC1CCCC1)c1ccccc1 (stereo not drawn) | active: -60.9%
36 | CCN(CC)S(=O)(=O)c1ccc(N2CCCCS2(=O)=O)cc1 | inactive: -0.865%
37 | Cc1cccc(OCC(=O)N/N=C/c2ccc(N(C)C)cc2)c1 | active: -102%
38 | O=C(OCc1c(F)cccc1Cl)c1cnc(Cl)c(Cl)c1 | inconclusive: -54.2%
39 | Cc1cccc(CN2CCN(C(c3ccccc3)c3ccc(Cl)cc3)CC2)c1 (stereo not drawn) | inconclusive: -40.8%
40 | O=C(O)c1cccc(N/N=C/c2cccc3ccccc23)c1 | inactive: -15.2%
41 | Cc1cc(C)cc(OCC(=O)Nc2cccc(-c3nnc(-c4ccco4)o3)c2)c1 | inactive: -16.4%
42 | COc1cc(C(=O)N/N=C/c2ccc(OC(=O)c3ccccc3Cl)cc2)ccc1O | active: -91.4%
43 | COc1ccccc1N1CCN(C(=O)Cn2c(=O)n3nc(-c4ccc(C)cc4)nc3c3ccccc32)CC1 | inactive: 5.52%
44 | Cn1c(N)c(C(=O)COC(=O)c2ccccc2C(=O)c2ccc(Cl)c([N+](=O)[O-])c2)c(=O)n(C)c1=O | inconclusive: -50.7%

Row | Structure (SMILES) | activity change, negative = inhibition
45 | C=CCOC(=O)c1[nH]c2c(c1C)C(=O)CC(c1cc(OC)c(OC)c(OC)c1)C2 (stereo not drawn) | inconclusive: -43.4%
46 | COc1ccc(CCOC(=O)c2ccc(NC(=O)CC#N)cc2)cc1 | inactive: 1.96%
47 | O=C1OC2(c3ccc(O)cc3Oc3cc(O)ccc32)c2ccccc21 | inactive: 26.6%
48 | COc1cc(C=O)ccc1OS(=O)(=O)c1ccccc1[N+](=O)[O-] | inactive: -28.9%
49 | COc1ccc(-c2csc3ncnc(N4CCN(S(=O)(=O)c5ccc(C)cc5)CC4)c23)cc1 | inconclusive: -59.6%
50 | CCc1ccc(CNC(=O)c2c3c(nc4ccccc24)C(=O)N(C2CCCCC2)C3)cc1 | inconclusive: -50.7%
51 | CC(=O)OCC1=C(C(=O)O)N2C(=O)[C@@H](NC(=O)CSc3ccncc3)[C@H]2SC1 | active: -91.6%
52 | CC1C(=O)Nc2ccc(S(=O)(=O)N3CCN(c4cccc(C(F)(F)F)c4)CC3)cc2NC1=O (stereo not drawn) | inconclusive: -41.4%
53 | CCOC(=O)c1cnc2c(C)c(Cl)ccc2c1NCCc1ccc(OC)c(OC)c1 | inconclusive: -48.1%
54 | O=C(Nn1c(C2CCCCC2)nc2ccccc2c1=O)c1ccc(Cl)c([N+](=O)[O-])c1 | inconclusive: -48.7%
55 | C=CCn1c(SCc2ccc(C(=O)Nc3nccs3)cc2)nnc1-c1ccc(C)c(Cl)c1 | inactive: -5.48%
56 | COc1ccccc1NC(=O)CCCCCN1C(=O)c2cccc([N+](=O)[O-])c2C1=O | inactive: -2.65%
57 | CCCCOC(=O)CSc1nnc(-c2ccccc2)o1 | inactive: -5.85%
58 | CSc1nc(C(=O)N2CCc3c([nH]c4ccccc34)C2c2ccccn2)cs1 (stereo not drawn) | inconclusive: -55.2%
59 | COC(=O)c1ccc(C(=O)OC)c(=O)[nH]1 | inactive: 1.25%
60 | CN1N=C2c3ccccc3CCC2C1c1ccc(F)cc1 (stereo not drawn) | inactive: -2.59%
61 | CCCCc1cc(=O)oc2cc(C)c3c(C)coc3c12 | inactive: -15.1%
62 | CCCc1nnc(NC(=O)COC(=O)c2cc(C)nc3ccccc23)s1 | inconclusive: -41.7%
63 | Cc1ccc(OCCn2cc(C(=O)C3CCCCC3)c3ccccc32)cc1 | inactive: -20.3%
64 | CCOC(=O)c1ccc(NC(=O)c2c(NCc3cccs3)sc3c2CCCCC3)cc1 | inconclusive: -41.3%
65 | O=C(Nc1ccccc1Cl)c1ccc(-n2cccn2)c([N+](=O)[O-])c1 | inconclusive: -56.2%
66 | c1ccc(N2CCN(c3nc(-c4cccs4)nc4ccccc34)CC2)cc1 | inconclusive: -46.5%

Row | Structure (SMILES) | activity change, negative = inhibition
67 | CSc1cccc(NC(=S)N(CCN(C)C)C(C)c2ccccn2)c1 (stereo not drawn) | inconclusive: -43.1%
68 | CCCNc1c(NS(=O)(=O)c2ccc(C(C)(C)C)cc2)c(=O)oc2ccccc12 | inconclusive: -47.4%
69 | CCN(CC)CCn1c(=N)n(CC(O)COc2cccc(C)c2)c2ccccc21 (stereo not drawn) | inconclusive: -40.4%
70 | NCCNc1ccc(C(=O)N2c3ccccc3Sc3ccccc32)cc1[N+](=O)[O-] | inconclusive: -43.4%
71 | O=C(O)c1ccccc1NN=Cc1ccccc1 | inconclusive: -47.3%
72 | Cc1ccc(Cl)cc1NC(=O)CN1C=NS(=O)(=O)c2ccccc21 | inactive: 0.491%
73 | O=C(C1CC1)N1CCCC(c2ccc(Cl)cc2)=N1 | inconclusive: -43.5%
74 | O=C(Nc1ccncc1)Nc1cccc(Cl)c1Cl | inactive: 9.55%
75 | Cc1c(C(=O)NCc2ccc3c(c2)OCO3)oc2ccc(S(=O)(=O)N3CCCCCC3)cc12 | inactive: 3.87%
76 | COc1ccccc1N(CC(=O)Nc1ccc2c(c1)OCCO2)S(C)(=O)=O | inactive: 3.98%
77 | CCCOc1ccc(-c2c(C(=O)N/N=C/c3ccco3)nnn2-c2nonc2N)cc1 | inconclusive: -41%
78 | CCCCCC1CC(CC(=O)Nc2ccc([N+](=O)[O-])cc2)OC1=O (stereo not drawn) | inactive: 22.3%
79 | CC(C)C(C)NC(=O)CSc1nc2scc(-c3ccco3)c2c(=O)n1-c1ccccc1 (stereo not drawn) | inconclusive: -42.4%
80 | Cc1nnc(NC(=O)CCn2c(=O)oc3ccc(Cl)cc32)s1 | inconclusive: -43.8%
81 | Cc1ccc(/C=N/NC(=O)c2ccccc2OCc2cccc(Br)c2)o1 | inconclusive: -50%
82 | CCOc1ccccc1-c1nc(-c2ccc(C)nc2OC)no1 | inactive: 1.32%
83 | CC1CCCCC1NC(=S)NC(=O)c1ccccc1Cl (stereo not drawn) | inconclusive: -43.8%
84 | CC(C)(C)c1ccc(/C=C/C(=O)Nc2ccncc2)cc1 | inconclusive: -41.2%
85 | CCN(CC(=O)Nc1ccccc1C(F)(F)F)C(=O)CN1C(=O)NC2(CCCC2)C1=O | active: -60.5%
86 | C/C(=N\NC(=O)c1ccncc1)c1cccc(NC(=O)c2ccc(C(C)(C)C)cc2)c1 | inconclusive: -43%
87 | COc1ccc(C2CCCN2C(=S)Nc2cccc(Cl)c2C)cc1OC (stereo not drawn) | inconclusive: -43.3%
88 | c1ccc2[nH]c(-c3cscn3)nc2c1 | inactive: 13.9%
